Results published in PubChem BioAssay AID686978 (National Center for Advancing Translational Sciences (NCATS), 2013).
Among all 420,000 compounds or so, about 64,000 (15%) were called active. The shares of active, inactive and inconclusive entries below differ from those in the screen. Calls follow the shape of the dose curve; as a rule, active = well fitted inhibition curve with a large enough effect; inconclusive = small, poorly fitted or top-dose-only effect; inactive = flat fitted curve, though single readings scatter. No potency is given beside an inconclusive call; the fits are too rough.

Assay: qHTS for Inhibitors of human tyrosyl-DNA phosphodiesterase 1 (TDP1): qHTS in cells in absence of CPT; also: nearly all actives have a fitted effect of over 55% in size
Conditions: DT40 Tdp1-/- hTDP1 cells, no CPT, ATP luminescence, 48 h; activity change, negative = growth inhibition: at 46.2 µM (top of the series) unless noted
How it was run: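 Growth of hTDP1-complemented DT40 Tdp1-knockout cells is measured by ATP luminescence after at least 48 hr compound exposure at 37 °C, with DMSO substituting for the 20 nM CPT used in the parallel screen.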
% is scaled to controls: 0 for no effect and ±100 for the full control effect; potency is read from the fitted curve at half-maximal effect; tags tell the direction and shape of the fitted curve.

Compound | activity change, negative = growth inhibition | Potency
O=C(Cc1ccccc1)NN1C(=O)C2C3C=CC(C4CC34)C2C1=O (configuration not stated) | inactive: 13% | –
O=C(c1ccc(NC(=S)NCc2ccco2)cc1)N1CCCCC1 | inactive: 0.721% | –
O=c1[nH]c(N2CCN(c3ccccc3)CC2)nc2c1CCC2 | – | inconclusive [inhibitor, partial curve, poor fit]
COc1ccc(OC)c(CN2CCC(CO)(CCOc3ccccc3)CC2)c1 | – | inconclusive [inhibitor, single point]
COc1cccc(NC(=O)Cn2c(=O)n(CCC(=O)NCc3ccccc3OC)c(=O)c3ccccc32)c1 | – | inconclusive [inhibitor, single point]
Cc1ccc(/C=N/NC(=O)C2CCN(Cc3ccc(F)cc3Cl)CC2)o1 | – | inconclusive [inhibitor, partial curve]
CCN1CCc2c(sc(-n3cccc3)c2C(C)NC(=O)Nc2ccc(C(=O)OC)cc2)C1 (configuration not stated) | – | active: 18.4 µM
Cc1ccc(NC(=O)Cn2cc3c(n2)CCCC3)cc1Cl | – | inconclusive [inhibitor, single point]
COc1ccc(C)c2sc(N(Cc3cccnc3)C(=O)c3cccs3)nc12 | – | inconclusive [inhibitor, single point]
O=C(CSc1nnc(NC(=O)c2ccc(S(=O)(=O)N3CCOCC3)cc2)s1)Nc1ccccc1C(F)(F)F | – | inconclusive [inhibitor, single point]
COc1c(C)cc(Br)cc1C(=O)NC(=S)NCc1ccco1 | inconclusive: -30.8% [inhibitor] | –
Oc1ccc(N2CCN(c3nnnn3-c3ccccc3)CC2)cc1 | – | active: 20.6 µM
Cc1ccc(-c2nn3c(C)nnc3c3ccccc23)cc1S(=O)(=O)NCc1ccccc1 | – | inconclusive [inhibitor, single point]
O=C(Nc1nncs1)c1ccc(F)c(S(=O)(=O)N2CCCCC2)c1 | inactive: 2.66% | –
COCCN(CC1CCCN(C2Cc3ccccc3C2)C1)C(=O)c1ccc(C(C)=O)cc1 (configuration not stated) | – | inconclusive [inhibitor, partial curve]
O=C1OC(Oc2ccccc2)(c2ccccc2)c2ccccc21 (configuration not stated) | inactive: -29.4% | –
CC(OC(=O)C1CC1)C(=O)Nc1cccc(S(=O)(=O)N2CCOCC2)c1 (configuration not stated) | inactive: 0.371% | –
Cc1cc(=O)nc2c3ccccc3n(C(C)C(=O)NCCN3CCOCC3)n12 (configuration not stated) | inactive: 3.79% | –
COc1ccc(CNC(=O)c2nn(C)c3c2CSc2ccccc2-3)cc1 | – | inconclusive [inhibitor, single point]
COc1ccc(CNS(=O)(=O)c2ccc(-c3cc(C(F)(F)F)on3)s2)cc1OC | – | active: 5.17 µM
CCOc1ccc(NCCC(=O)c2ccc3c(c2)OCO3)cc1 | – | inconclusive [inhibitor, single point]
O=C(O)c1ccc(N2CCN(Cc3ccc4c(c3)OCO4)CC2)c([N+](=O)[O-])c1 | – | inconclusive [inhibitor, single point]
CC1(C)OC2CC3C4CC=C5CC(O)CCC5(C)C4CCC3(C)C2(C(=O)CO)O1 (configuration not stated) | – | inconclusive [inhibitor, single point]
CCOc1ccccc1OCCCC(=O)NNC(=O)c1nn(C)c(=O)c2ccccc12 | inactive: 5.02% | –

Compound | activity change, negative = growth inhibition | Potency
C=CC[C@H](CC(=O)OC(C)(C)C)C(=O)OC[C@@H]1CCCN1C(=O)[C@@H](CC=C)CC(=O)N[C@H](CO)Cc1ccccc1 | – | inconclusive [inhibitor, single point]
O=C1[C@H]2[C@@H](c3ccc(F)cc3)N3C(=O)N(c4ccc(Br)cc4)C(=O)[C@@]3(Cc3ccccc3)[C@H]2C(=O)N1C1CCCCC1 | inconclusive: -34.2% [inhibitor] | –
Cc1nnc(SCC(=O)NC(=O)Nc2ccc3c(c2)OCCO3)n1N | inactive: 0% | –
CCN(CC)c1ccc(NC(=S)NC(=O)c2ccco2)cc1 | – | active: 18.4 µM
CN(C)C(CNC(=O)CSc1nc2sc3c(c2c(=O)n1C)CCC3)c1ccccc1 (configuration not stated) | – | inconclusive [inhibitor, single point]
Clc1ccc(OCCn2ccnc2)cc1Cl | – | inconclusive [inhibitor, single point]
O=C(NC(=S)N1CCN(C/C=C/c2ccccc2)CC1)c1ccc(Cl)nc1 | – | active: 14.6 µM
Cc1cnc(C(=O)N2CCCC(C(=O)c3ccc(C(C)(C)C)cc3)C2)cn1 (configuration not stated) | – | active: 23.1 µM
CC(C)Sc1nc2c(c(=O)[nH]c(=O)n2C)n1CCc1ccccc1 | – | inconclusive [inhibitor, single point]
Fc1ccccc1-c1csc(-c2cccnc2)n1 | – | inconclusive [inhibitor, single point]
Cn1ccnc1SCC(=O)Nc1cccc(C(F)(F)F)c1 | inactive: -0.1% | –
CCN1/C(=C/C=C/c2oc3ccc(-c4ccccc4)cc3[n+]2CC)Oc2ccc(-c3ccccc3)cc21 | – | active: 0.0731 µM
Cc1nnc(SCCOC(N)=O)n1C | – | inconclusive [inhibitor, full curve, poor fit]
Cc1cc(C)c2nc(-c3ccccc3)ccc2c1 | inactive: -22.1% | –
CC1CN(Cc2ccccc2)C(=S)NC1=O (configuration not stated) | inactive: -1.83% | –
O=C(CSc1nc(-c2ccccc2)cs1)NCc1ccco1 | – | inconclusive [inhibitor, single point]
COc1cccc(/C=N/NC(=O)c2c(C)nc3ccc(Br)cn23)c1O | – | active: 3.26 µM
Cc1nn(-c2ccccc2)c(C)c1NC(=O)COc1ccccc1C#N | inactive: -25.4% | –
CC(=O)Nc1cccc(NC(=O)CSc2nnnn2Cc2ccccc2)c1 | – | inconclusive [inhibitor, single point]
CCOC(=O)C1CCN(C(=O)CCc2nnc3ccc(N4CCC(C)CC4)nn23)CC1 | – | inconclusive [inhibitor, single point]
CN1CCC(CO)(Cc2ccccc2)CC1 | inactive: 5.61% | –
CSCCC(NC(=O)c1ccccc1Cl)C(=O)Nc1cccc(S(=O)(=O)N2CCCC2)c1 (configuration not stated) | – | inconclusive [inhibitor, partial curve]
CCCN1CCC(NC(=O)Nc2cccc3ccccc23)CC1 | inactive: 13.1% | –
